The record followed here is publication PMC9911399, “Two distinct binding modes provide the RNA-binding protein RbFox with extraordinary sequence specificity”.

Residue numbers refer to the chain shown, from its start. This is one part of the list.

First the molecules themselves.
B1: GCGUCUU (DNA:RNA)
RNA: GGGAGACCGGAAUUCAGAUUGUCCGCGUCUUUUAAAUCCCGUCGUAGCCACCA
DNA 1: CAATCTGAATTCCGGTCTCCC
DNA 2: TGGTGGCTACGACGGGATT
B2: CCUGUUG (DNA:RNA)
RNA: B1 RNA with G25C, G27U, U28G, C29U, U31G
DNA 1: CAATCTGAATTCCGGTCTCCC
DNA 2: TGGTGGCTACGACGGGATT
B3: CCUGGAC (DNA:RNA)
RNA: B1 RNA with G25C, G27U, U28G, C29G, U30A, U31C
DNA 1: CAATCTGAATTCCGGTCTCCC
DNA 2: TGGTGGCTACGACGGGATT
B4: GUACUUG (DNA:RNA)
RNA: B1 RNA with C26U, G27A, U28C, C29U, U31G
DNA 1: CAATCTGAATTCCGGTCTCCC
DNA 2: TGGTGGCTACGACGGGATT
B5: AGAAACC (DNA:RNA)
RNA: GGGAGACCGGAAUUCAGAUUGUCCAGAAACCUUAAAUCCCGUCGUAGCCACCA
DNA 1: CAATCTGAATTCCGGTCTCCC
DNA 2: TGGTGGCTACGACGGGATT
B6: CCGUUGC (DNA:RNA)
RNA: B1 RNA with G25C, C29U, U30G, U31C
DNA 1: CAATCTGAATTCCGGTCTCCC
DNA 2: TGGTGGCTACGACGGGATT
B7: CCCUUGU (DNA:RNA)
RNA: B1 RNA with G25C, G27C, C29U, U30G
DNA 1: CAATCTGAATTCCGGTCTCCC
DNA 2: TGGTGGCTACGACGGGATT
B8: UCCACGU (DNA:RNA)
RNA: B1 RNA with G25U, G27C, U28A, U30G
DNA 1: CAATCTGAATTCCGGTCTCCC
DNA 2: TGGTGGCTACGACGGGATT
B9: UGAAGUC (DNA:RNA)
RNA: B5 RNA with A25U, A29G, C30U
DNA 1: CAATCTGAATTCCGGTCTCCC
DNA 2: TGGTGGCTACGACGGGATT
B10: CACGAUU (DNA:RNA)
RNA: B1 RNA with G25C, C26A, G27C, U28G, C29A
DNA 1: CAATCTGAATTCCGGTCTCCC
DNA 2: TGGTGGCTACGACGGGATT
B11: AUGGUGC (DNA:RNA)
RNA: B5 RNA with G26U, A27G, A28G, A29U, C30G
DNA 1: CAATCTGAATTCCGGTCTCCC
DNA 2: TGGTGGCTACGACGGGATT
B12: AGGGUUG (DNA:RNA)
RNA: B5 RNA with A27G, A28G, A29U, C30U, C31G
DNA 1: CAATCTGAATTCCGGTCTCCC
DNA 2: TGGTGGCTACGACGGGATT
B13: UAAUAAA (DNA:RNA)
RNA: B5 RNA with A25U, G26A, A28U, C30A, C31A
DNA 1: CAATCTGAATTCCGGTCTCCC
DNA 2: TGGTGGCTACGACGGGATT
B14: UAGAUAA (DNA:RNA)
RNA: B5 RNA with A25U, G26A, A27G, A29U, C30A, C31A
DNA 1: CAATCTGAATTCCGGTCTCCC
DNA 2: TGGTGGCTACGACGGGATT
B15: AGUGGGA (DNA:RNA)
RNA: B5 RNA with A27U, A28G, A29G, C30G, C31A
DNA 1: CAATCTGAATTCCGGTCTCCC
DNA 2: TGGTGGCTACGACGGGATT
B16: CCGCCUU (DNA:RNA)
RNA: B1 RNA with G25C, U28C
DNA 1: CAATCTGAATTCCGGTCTCCC
DNA 2: TGGTGGCTACGACGGGATT
B17: CUCAUUG (DNA:RNA)
RNA: B5 RNA with A25C, G26U, A27C, A29U, C30U, C31G
DNA 1: CAATCTGAATTCCGGTCTCCC
DNA 2: TGGTGGCTACGACGGGATT
B18: GAUCCAG (DNA:RNA)
RNA: B1 RNA with C26A, G27U, U28C, U30A, U31G
DNA 1: CAATCTGAATTCCGGTCTCCC
DNA 2: TGGTGGCTACGACGGGATT
B19: UUGGGUG (DNA:RNA)
RNA: B1 RNA with G25U, C26U, U28G, C29G, U31G
DNA 1: CAATCTGAATTCCGGTCTCCC
DNA 2: TGGTGGCTACGACGGGATT
B20: CGUGGUA (DNA:RNA)
RNA: B5 RNA with A25C, A27U, A28G, A29G, C30U, C31A
DNA 1: CAATCTGAATTCCGGTCTCCC
DNA 2: TGGTGGCTACGACGGGATT
B21: GCGGCUG (DNA:RNA)
RNA: B1 RNA with U28G, U31G
DNA 1: CAATCTGAATTCCGGTCTCCC
DNA 2: TGGTGGCTACGACGGGATT
B22: AGAGGGU (DNA:RNA)
RNA: B5 RNA with A28G, A29G, C30G, C31U
DNA 1: CAATCTGAATTCCGGTCTCCC
DNA 2: TGGTGGCTACGACGGGATT
B23: GGGACCG (DNA:RNA)
RNA: B5 RNA with A25G, A27G, A29C, C31G
DNA 1: CAATCTGAATTCCGGTCTCCC
DNA 2: TGGTGGCTACGACGGGATT
B24: AGGUGCG (DNA:RNA)
RNA: B5 RNA with A27G, A28U, A29G, C31G
DNA 1: CAATCTGAATTCCGGTCTCCC
DNA 2: TGGTGGCTACGACGGGATT
B25: GGGGUAG (DNA:RNA)
RNA: B1 RNA with C26G, U28G, C29U, U30A, U31G
DNA 1: CAATCTGAATTCCGGTCTCCC
DNA 2: TGGTGGCTACGACGGGATT
B26: GCCUGUU (DNA:RNA)
RNA: B1 RNA with G27C, C29G
DNA 1: CAATCTGAATTCCGGTCTCCC
DNA 2: TGGTGGCTACGACGGGATT
B27: ACGCCGA (DNA:RNA)
RNA: B1 RNA with G25A, U28C, U30G, U31A
DNA 1: CAATCTGAATTCCGGTCTCCC
DNA 2: TGGTGGCTACGACGGGATT
B28: CACUAAU (DNA:RNA)
RNA: B1 RNA with G25C, C26A, G27C, C29A, U30A
DNA 1: CAATCTGAATTCCGGTCTCCC
DNA 2: TGGTGGCTACGACGGGATT
B29: CAAUGUC (DNA:RNA)
RNA: B5 RNA with A25C, G26A, A28U, A29G, C30U
DNA 1: CAATCTGAATTCCGGTCTCCC
DNA 2: TGGTGGCTACGACGGGATT
B30: GCUUAUA (DNA:RNA)
RNA: B1 RNA with G27U, C29A, U31A
DNA 1: CAATCTGAATTCCGGTCTCCC
DNA 2: TGGTGGCTACGACGGGATT
B31: CCUUCCG (DNA:RNA)
RNA: B1 RNA with G25C, G27U, U30C, U31G
DNA 1: CAATCTGAATTCCGGTCTCCC
DNA 2: TGGTGGCTACGACGGGATT

The target of this assay is T1, RBFOX1 RRM (Homo sapiens, UniProt Q9NWB1 109-208).
T1 sequence: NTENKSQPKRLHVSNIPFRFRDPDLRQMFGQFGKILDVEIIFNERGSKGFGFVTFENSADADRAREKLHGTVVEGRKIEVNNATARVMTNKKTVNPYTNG
Put plainly: EMSA; HiTS-Eq, 1 nM pool, 10 min; buffer printed only for the single-RNA assays: 10 mM Tris pH 7.5, 150 mM NaCl, 3.4 mM EDTA, 0.001% NP-40, 30 C. The note with it: tags: His6 N-terminal (pET28a); label: 5' 32P. In short, it runs like this:
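These values rest on relative association constants, computed from read-count changes of each RNA species versus the control reaction and normalised to the cognate motif. Reads came from free RNA recovered by 8% native PAGE after purified RbFox RRM (wild type or mutant) at increasing concentrations was equilibrated for 10 min in 50 µL with 1 nM of a 5′-radiolabelled pool with 7 randomized nucleotides and DNA-annealed flanks.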
For B1, the binding signal was 0.0135 KA relative to UGCAUGU.

Take B2: the binding signal was 0.0232 KA relative to UGCAUGU.

For the molecule B3, the binding signal is 0.009 KA relative to UGCAUGU.

In the case of B4, the binding signal was 0.0159 KA relative to UGCAUGU.

In the case of B5, the binding signal is 0.00391 KA relative to UGCAUGU.

B6: the binding signal was 0.0124 KA relative to UGCAUGU.

For B7, the binding signal was 0.0119 KA relative to UGCAUGU.

Consider B8, for which the binding signal was 0.00615 KA relative to UGCAUGU.

As to B9, the binding signal was 0.0195 KA relative to UGCAUGU.

For B10, the binding signal is 0.00297 KA relative to UGCAUGU.

As for B11, the binding signal is 0.0164 KA relative to UGCAUGU.

Take B12: the binding signal is 0.0284 KA relative to UGCAUGU.

Turning to B13, the binding signal is 0.00103 KA relative to UGCAUGU.

In the case of B14, the binding signal is 0.00555 KA relative to UGCAUGU.

In the case of B15, the binding signal was 0.00944 KA relative to UGCAUGU.

B16: the binding signal was 0.00562 KA relative to UGCAUGU.

Turning to B17, the binding signal was 0.0114 KA relative to UGCAUGU.

Turning to B18, the binding signal was 0.00984 KA relative to UGCAUGU.

With B19, the binding signal was 0.0408 KA relative to UGCAUGU.

On to B20, for which the binding signal was 0.0128 KA relative to UGCAUGU.

For the molecule B21, the binding signal was 0.0233 KA relative to UGCAUGU.

Consider B22, for which the binding signal was 0.0088 KA relative to UGCAUGU.

Turning to B23, the binding signal is 0.0273 KA relative to UGCAUGU.

Take B24: the binding signal is 0.0146 KA relative to UGCAUGU.

For B25, the binding signal is 0.027 KA relative to UGCAUGU.

With B26, the binding signal is 0.0238 KA relative to UGCAUGU.

For B27, the binding signal is 0.00551 KA relative to UGCAUGU.

For B28, the binding signal was 0.00175 KA relative to UGCAUGU.

As to B29, the binding signal was 0.00749 KA relative to UGCAUGU.

B30: the binding signal was 0.00444 KA relative to UGCAUGU.

In the case of B31, the binding signal was 0.00796 KA relative to UGCAUGU.
